Laboratory results as given in patent US20120253017A1 (published 2012).

How the values were obtained:
[1] = target: cKIT-H6 (His tagged), MSD assay; assay: MSD bridging assay, cKIT-H6 coated, vMLC1-sulfotag detection, top standard concentration
[2] = target: Myosin Light Chain (on streptavidin chip; vMLC1-sulfotag); assay: BIAcore, bivalent model
[3] = target: T1, human c-kit (recombinant, on BIAcore chip or beads) (human, UniProt P10721 partial chain); assay: BIAcore, bivalent model
T1 construct: extracellular domain; also called hcKIT; biotinylated human c-kit
T1 sequence (P10721 26-524): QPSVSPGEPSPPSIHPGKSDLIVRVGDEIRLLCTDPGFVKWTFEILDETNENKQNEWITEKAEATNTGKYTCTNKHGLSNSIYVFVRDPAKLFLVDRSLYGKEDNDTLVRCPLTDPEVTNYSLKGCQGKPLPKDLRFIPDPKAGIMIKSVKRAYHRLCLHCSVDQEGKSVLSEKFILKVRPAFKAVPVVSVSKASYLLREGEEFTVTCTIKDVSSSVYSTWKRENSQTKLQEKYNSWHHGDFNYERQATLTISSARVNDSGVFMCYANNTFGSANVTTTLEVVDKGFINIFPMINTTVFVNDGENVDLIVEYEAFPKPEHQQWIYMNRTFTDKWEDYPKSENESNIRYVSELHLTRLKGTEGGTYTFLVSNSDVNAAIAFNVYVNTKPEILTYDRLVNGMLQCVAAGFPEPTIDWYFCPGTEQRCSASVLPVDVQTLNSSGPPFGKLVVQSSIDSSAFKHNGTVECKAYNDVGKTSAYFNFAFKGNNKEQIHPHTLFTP

[4] = target: T2, rat cKIT ECD (rat, UniProt Q63116 25-526); assay: BIAcore, bivalent model
T2 construct: cloned into pDOM38, which provides a human IgG1 Fc; also called rcKIT; rckit; not shown: Human IgG1 Fc (and any linker) supplied by vector pDOM38
T2 sequence (Q63116 entry or part of it limits assumed, form in doubt): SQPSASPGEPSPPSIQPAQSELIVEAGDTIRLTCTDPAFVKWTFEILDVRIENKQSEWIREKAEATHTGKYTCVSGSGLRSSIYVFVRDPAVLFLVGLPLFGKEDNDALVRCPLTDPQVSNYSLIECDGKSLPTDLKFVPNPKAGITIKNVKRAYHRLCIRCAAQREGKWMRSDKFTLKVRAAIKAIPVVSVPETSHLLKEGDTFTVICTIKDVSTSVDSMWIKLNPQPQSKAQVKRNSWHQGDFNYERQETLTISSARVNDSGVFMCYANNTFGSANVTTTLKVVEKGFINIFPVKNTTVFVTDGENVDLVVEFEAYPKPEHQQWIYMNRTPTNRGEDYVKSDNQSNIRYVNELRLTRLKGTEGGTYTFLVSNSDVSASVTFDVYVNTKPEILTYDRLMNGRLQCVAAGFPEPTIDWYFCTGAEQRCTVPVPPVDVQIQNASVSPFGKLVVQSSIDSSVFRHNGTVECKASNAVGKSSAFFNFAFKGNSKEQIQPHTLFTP

[5] = target: cKIT-H6 (His tagged), MSD assay; assay: MSD bridging assay, cKIT-H6 coated, vMLC1-sulfotag detection, 10% mouse serum
[6] = target: T1, human c-kit (recombinant, on BIAcore …); assay: BIAcore
[7] = target: Myosin Light Chain (on streptavidin chip; vMLC1-sulfotag); assay: BIAcore, bivalent model, bad fit

Myosin Light Chain (on streptavidin chip; vMLC1-sulfotag), sequence (chain, as listed by the source): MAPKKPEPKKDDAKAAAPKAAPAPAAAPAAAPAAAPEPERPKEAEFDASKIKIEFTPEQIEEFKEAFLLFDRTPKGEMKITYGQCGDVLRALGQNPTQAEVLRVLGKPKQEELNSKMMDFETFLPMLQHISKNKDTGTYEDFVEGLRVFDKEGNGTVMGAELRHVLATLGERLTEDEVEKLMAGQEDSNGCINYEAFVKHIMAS

Binder | Top counts [1] [counts] | Kd [2] [nM] | Kd [3] [nM] | Kd [4] [nM] | S:N @ ULOQ [5] | s:N @ LLOQ [5] | binding result [6] | Kd [7] [nM]
DMS5072 (humanized 5-51 VH/4-1 Vk MLC mAb-DOM28m-017) (bispecific antibody, human IgG1, kappa, human IgG1, dAb at heavy chain C-terminus) heavy: EVQLVQSGAEVKKPGESLKISCKGSGYSFTTYWIHWVRQMPGKGLEWMGAIYPGDGDTRYTQNFKDQVTISADKSISTAYLQWSSLKASDTAMYYCAREGTPPFTTATFAMAYWGQGTLVTVSS[in this place human IgG1 constant region]STGEVQLLESGGGLVQPGGSLRLSCAASGFTFEPYSMGWVRQAPGKGLEWVSQISASGDVTYYADSVKGRFTISRDNSKNTLYLQMNSLRAEDTAVYYCAKWRWRDSFENFDYWGQGTLVTVSS light: DIVMTQSPDSLAVSLGERATINCKSSQSLLYSRTRKNYLAWYQQKPGQPPKLLIYWASTRQSGVPDRFSGSGSGTDFTLTISSLQAEDVAVYYCKQSYNLFTFGQGTKLEIKRTVAAPSVFIFPPSDEQLKSGTASVVCLLNNFYPREAKVQWKVDNALQSGNSQESVTEQDSKDSTYSLSSTLTLSKADYEKHKVYACEVTHQGLSSPVTKSFNRGEC | 741 | 9 | 8000 | 3000 | 362 | 1.5 |  | 
DMS5075 (humanized 5-51 VH/4-1 Vk MLC mAb-DOM28m-107) (bispecific antibody, human IgG1, kappa, human IgG1, dAb at heavy chain C-terminus) heavy: EVQLVQSGAEVKKPGESLKISCKGSGYSFTTYWIHWVRQMPGKGLEWMGAIYPGDGDTRYTQNFKDQVTISADKSISTAYLQWSSLKASDTAMYYCAREGTPPFTTATFAMAYWGQGTLVTVSS[in this place human IgG1 constant region]STGEVQLLESGGGLVQPGGSLRLSCAASGFTFRHYDMAWVRQAPGKGLEWVSTIASTGARTYYADSVKGRFTISRDNSKNTLYLQMNSLRAEDTAVYYCAKASGYSTAPQFDYWGQGTLVTVSS light: DIVMTQSPDSLAVSLGERATINCKSSQSLLYSRTRKNYLAWYQQKPGQPPKLLIYWASTRQSGVPDRFSGSGSGTDFTLTISSLQAEDVAVYYCKQSYNLFTFGQGTKLEIKRTVAAPSVFIFPPSDEQLKSGTASVVCLLNNFYPREAKVQWKVDNALQSGNSQESVTEQDSKDSTYSLSSTLTLSKADYEKHKVYACEVTHQGLSSPVTKSFNRGEC | 100000 |  |  |  | 1380 | 3.8 | no binding (tested: 1 uM) | 36
DMS5076 (humanized 5-51 VH/4-1 Vk MLC mAb-DOM28m-109) (bispecific antibody, human IgG1, kappa, human IgG1, dAb at heavy chain C-terminus) heavy: EVQLVQSGAEVKKPGESLKISCKGSGYSFTTYWIHWVRQMPGKGLEWMGAIYPGDGDTRYTQNFKDQVTISADKSISTAYLQWSSLKASDTAMYYCAREGTPPFTTATFAMAYWGQGTLVTVSS[in this place human IgG1 constant region]STGEVQLLESGGGLVQPGGSLRLSCAASGFTFSDYTMHWVRQAPGKGLEWVSRIDPMGIATYYADSVKGRFTISRDNSKNTLYLQMNSLRAEDTAVYYCAKDLRWATGFQQDFDYWGQGTLVTVS light: DIVMTQSPDSLAVSLGERATINCKSSQSLLYSRTRKNYLAWYQQKPGQPPKLLIYWASTRQSGVPDRFSGSGSGTDFTLTISSLQAEDVAVYYCKQSYNLFTFGQGTKLEIKRTVAAPSVFIFPPSDEQLKSGTASVVCLLNNFYPREAKVQWKVDNALQSGNSQESVTEQDSKDSTYSLSSTLTLSKADYEKHKVYACEVTHQGLSSPVTKSFNRGEC | 3340 | 4 | 4000 | 1500 | 1100 | 67.7 |  | 
